Source: a collection of fitness landscapes (doi:10.1016/j.celrep.2020.107928)
Over roughly 81,000 sequences, “one-hybrid fitness for binding parS DNA” has its median near -0.17; the highest 2% begin near 0.51. The list shows a part of the results.

B1: Caulobacter ParB omega fusion; a variant is named by its letters at X, in order, B8GW30 (parent)
chain: MESVVVGEPGMSEGRRGLGRGLSALLGEVDAAPAQAPGEQLGGSREAPIEILQRNPDQPRRTFREEDLEDLSNSIREKGVLQPILVRPSPDTAGEYQIVAGERAWRAAQRAGLKTVPIMVRELDDLAVLEIGIIENVQRADLNVLEEALSYKVLMEKFERTQENIAQTIGKSXSHVANXMRLLXLPDEVQSYLVSGELTAXHARAIAAAADPVALAKQIIEGGLSVRETEALARKAPNLSAGKSKGGRPPRVKDTDTQALESDLSSVLGLDVSIDHRGSTGTLTITYATLEQLDDLCNRLTRGI

Variants of: B1
Test: one-hybrid fitness for binding parS DNA (scaled: cognate 1, non-cognate 0); higher = stronger binding
Details: with parS DNA site
Method in brief: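 Pre- and post-selection plasmids were Illumina-sequenced, three replicate libraries were pooled, and any variant with under 10 reads was removed. The libraries were Caulobacter ParB with four specificity codons randomised, selected in E. coli USO through a HIS3 reporter whose site is 19 bp from the promoter. Cells grew 48 hours at 37°C on M9 without histidine, with 0.1 mM IPTG and 5 mM 3-AT. Fitness is the log change in variant-to-wild-type read ratio, rescaled against cognate and non-cognate.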

| Variant | one-hybrid fitness for binding parS DNA |
| --- | --- |
| AHLF | ≤ 0.2 |
| AKRT | ≤ 0.2 |
| CVKF | ≤ 0.2 |
| TTTF | ≤ 0.2 |
| INAS | ≤ 0.2 |
| QKVC | ≤ 0.2 |
| LHQW | ≤ 0.2 |
| QDFT | ≤ 0.2 |
| RGDS | 0.551 |
| GPSP | ≤ 0.2 |
| IAST | ≤ 0.2 |
| TPPN | ≤ 0.2 |
| AEAP | ≤ 0.2 |
| AIEI | ≤ 0.2 |
| HWHT | ≤ 0.2 |
| IYKC | ≤ 0.2 |
| RYWP | ≤ 0.2 |
| MSHA | ≤ 0.2 |
| RYYN | 0.383 |
| VYDS | ≤ 0.2 |
| FVVE | ≤ 0.2 |
| VWPT | ≤ 0.2 |
| ENSM | ≤ 0.2 |
| PLCA | ≤ 0.2 |
| TQGR | ≤ 0.2 |
| CGPL | ≤ 0.2 |

| Variant | one-hybrid fitness for binding parS DNA |
| --- | --- |
| CWPS | ≤ 0.2 |
| HMCC | ≤ 0.2 |
| WSHF | ≤ 0.2 |
| MLMV | ≤ 0.2 |
| TFQC | ≤ 0.2 |
| ASKT | ≤ 0.2 |
| NWNL | ≤ 0.2 |
| DGRR | ≤ 0.2 |
| LCMR | ≤ 0.2 |
| WIPI | ≤ 0.2 |
| AHMW | ≤ 0.2 |
| SHRL | ≤ 0.2 |
| NQER | ≤ 0.2 |
| SHNK | ≤ 0.2 |
| TTLP | ≤ 0.2 |
| QRKS | ≤ 0.2 |
| PVPC | ≤ 0.2 |
| EVYV | ≤ 0.2 |
| HYTC | ≤ 0.2 |
| PTTG | ≤ 0.2 |
| TMWC | ≤ 0.2 |
| YMRS | ≤ 0.2 |
| AWVR | ≤ 0.2 |
| HCPL | ≤ 0.2 |
| KYYF | ≤ 0.2 |
| CAKT | ≤ 0.2 |

| Variant | one-hybrid fitness for binding parS DNA |
| --- | --- |
| SMRG | ≤ 0.2 |
| GSPI | ≤ 0.2 |
| ENRW | ≤ 0.2 |
| ARYK | ≤ 0.2 |
| FVPR | ≤ 0.2 |
| KDCR | ≤ 0.2 |
| NTTW | ≤ 0.2 |
| FNGC | ≤ 0.2 |
| WSTL | ≤ 0.2 |
| AGAG | ≤ 0.2 |
| GHIT | ≤ 0.2 |
| EAPM | ≤ 0.2 |
| ILLG | ≤ 0.2 |
| VMNF | ≤ 0.2 |
| CART | ≤ 0.2 |
| QMIK | ≤ 0.2 |
| LYRI | ≤ 0.2 |
| DSIV | ≤ 0.2 |
| PKSS | ≤ 0.2 |
| RCQI | ≤ 0.2 |
| PWYF | ≤ 0.2 |
| MYSR | ≤ 0.2 |
| SILT | ≤ 0.2 |
| TPEL | ≤ 0.2 |
| WCCG | ≤ 0.2 |
| RNLF | ≤ 0.2 |

| Variant | one-hybrid fitness for binding parS DNA |
| --- | --- |
| TRDD | ≤ 0.2 |
| MTVV | ≤ 0.2 |
| PFMT | ≤ 0.2 |
| RWTP | ≤ 0.2 |
| GTMS | ≤ 0.2 |
| HVAC | ≤ 0.2 |
| IMTG | ≤ 0.2 |
| DVVA | ≤ 0.2 |
| AVTA | ≤ 0.2 |
| YSLT | ≤ 0.2 |
| KCIW | ≤ 0.2 |
| AGHY | ≤ 0.2 |
| NMMS | ≤ 0.2 |
| EYSL | ≤ 0.2 |
| DKAW | ≤ 0.2 |
| WCYE | ≤ 0.2 |
| ITVS | ≤ 0.2 |
| VCGR | ≤ 0.2 |
| GPAR | ≤ 0.2 |
| RSFV | ≤ 0.2 |
| HRNY | ≤ 0.2 |
| RMHS | 0.979 |
| HSCC | ≤ 0.2 |
| ISNA | ≤ 0.2 |
| LASV | ≤ 0.2 |
| QFNF | ≤ 0.2 |

| Variant | one-hybrid fitness for binding parS DNA |
| --- | --- |
| NPIG | ≤ 0.2 |
| LRPT | ≤ 0.2 |
| TAGT | ≤ 0.2 |
| SKMC | ≤ 0.2 |
| KNAD | ≤ 0.2 |
| SEWS | ≤ 0.2 |
| WRAA | ≤ 0.2 |
| PGFW | ≤ 0.2 |
| LFYS | ≤ 0.2 |
| RGNN | 0.321 |
| VQKF | ≤ 0.2 |
| QGPY | ≤ 0.2 |
| NCPI | ≤ 0.2 |
| FSMD | ≤ 0.2 |
| TTKW | ≤ 0.2 |
| HHFF | ≤ 0.2 |
| RQYL | 0.208 |
| PRNR | ≤ 0.2 |
| YLIR | ≤ 0.2 |
| NVCS | ≤ 0.2 |
| WREM | ≤ 0.2 |
| RTLV | ≤ 0.2 |
| ESIG | ≤ 0.2 |
| IDPC | ≤ 0.2 |
| PRWY | ≤ 0.2 |
| RNDQ | ≤ 0.2 |

| Variant | one-hybrid fitness for binding parS DNA |
| --- | --- |
| TQKS | ≤ 0.2 |
| APSE | ≤ 0.2 |
| RSTN | 0.461 |
| RLPC | 0.681 |
| PGFR | ≤ 0.2 |
| SHTD | ≤ 0.2 |
| LLMI | ≤ 0.2 |
| VQKS | ≤ 0.2 |
| AIAN | ≤ 0.2 |
| QLTM | ≤ 0.2 |
| RYFM | 0.264 |
| LYIT | ≤ 0.2 |
| LSLN | ≤ 0.2 |
| YPNV | ≤ 0.2 |
| QYLS | ≤ 0.2 |
| HQCC | ≤ 0.2 |
| TPML | ≤ 0.2 |
| LWDW | ≤ 0.2 |
| CRIN | ≤ 0.2 |
| LWTV | ≤ 0.2 |
| NQMP | ≤ 0.2 |
| SVNS | ≤ 0.2 |
| MMTR | ≤ 0.2 |
